Reference: PubChem BioAssay AID463173 (ICCB-Longwood Screening Facility, Harvard Medical School, 2010)
Screen size: about 52,000 compounds; about 4,300 (8.3%) were called active. Cut-off read from the data, not from the text of the source: active = survival mostly below about 52% (no sharp cut-off); inactive = mostly above about 56%. The list shows a part of the results.

Tested on: DeltatarO mutant
Assay: S. aureus survival, RN4220 and DeltatarO strains – OD600, teichoic acid synthesis inhibitors, primary screen (AID 463173)
Settings: S. aureus RN4220 wild type/DeltatarO growth, OD600, 18 h, active compounds read low, screened at 18.75 µg/mL (by protocol)

| SMILES | survival |
| --- | --- |
| Cc1cccc(N2CCN(CCCNC(=O)Cn3ncc4c([nH]c5ccccc54)c3=O)CC2C)c1 (centres undefined) | inactive: 103% |
| Cc1c(C(=O)N2CCCCCC2)c(S(=O)(=O)Nc2cccc(C#N)c2)c(C)n1C | inactive: 85% |
| Cc1cc(=O)[nH]c2nnc(SCc3ccccc3F)n12 | inactive: 71% |
| CC1(C)N=C(SCc2ccc(Cl)cc2)c2ccccc2N1 | inactive: 100% |
| O=C(NCCc1ccccc1)C(=O)NCC(c1cccs1)S(=O)(=O)c1cccs1 (centres undefined) | inactive: 99% |
| Cc1ccc(S(=O)(=O)N2CCN(Cc3cc(=O)n4nc(-c5ccccc5Cl)sc4n3)CC2)cc1 | inactive: 74% |
| Cn1c(=O)cc(SCC(=O)NCc2ccc(F)cc2)c2cc(Cl)ccc21 | inactive: 88% |
| CCOC(=O)c1c(C)[nH]c(C)c1S(=O)(=O)N1CCC(C(=O)Nc2ccccc2CC)CC1 | inactive: 64% |
| COc1ccc(-c2cn3c(n2)sc2cc(C(=O)Nc4ccc(C)c(Cl)c4)ccc23)cc1 | inactive: 69% |
| CC1=C(c2ccc(C(C)C)cc2)S(=O)(=O)N=C1N1CCC(C(=O)Nc2ccc(C)cc2)CC1 | inactive: 76% |
| CCOc1ccc(-c2nnc(SCC(=O)Nc3ccc(C)cc3C)o2)cc1 | inactive: 78% |
| COC(=O)c1ccc(NC(=O)n2ncc3c(C)cccc32)cc1 | inactive: 76% |
| CCOC(=O)c1[nH]c2c(c1Cc1ccccc1C)C(=O)CC(c1ccccc1)C2 (centres undefined) | inactive: 92% |
| CCc1ccc(NC(=O)c2cnn(-c3c(C)cccc3C)c2C2CCN(C(=O)OC(C)(C)C)CC2)cc1 | inactive: 89% |
| CCn1c(C(=O)NCc2ccccc2Cl)cc2sc(Cl)cc21 | inactive: 63% |
| CC(Oc1ccccc1)C(=O)Nc1ccc(C(=O)OCc2cc(=O)n3nc(C4CC4)sc3n2)cc1 (centres undefined) | inactive: 64% |
| O=C(CCC(=O)N1Cc2ccccc2Oc2ncccc21)NCc1cccc(Cl)c1 | inactive: 75% |
| COc1ccc(Cc2nc3ccccc3n2Cc2ccccc2C)cc1 | active: -3% |
| Cc1cc2[nH]c(=O)c(=O)[nH]c2cc1S(=O)(=O)N1CCN(c2ccccc2)CC1 | inactive: 86% |
| O=C(NCc1cccc(Cl)c1)c1ccc(NC(=O)N2CCSc3ccccc32)cc1 | inactive: 57% |
| COc1ccc(-c2cc3ccc(O)c(CN4CCCC(C)C4)c3oc2=O)cc1OC (centres undefined) | inactive: 62% |
| COc1cc(S(=O)(=O)N(CC(=O)Nc2c(C)cccc2C)CC2CCCO2)ccc1-n1cnnn1 (centres undefined) | inactive: 73% |
| CCc1ccc(-n2nc(CO)c(C(=O)NCc3ccccc3Cl)n2)cc1 | inactive: 49% |

| SMILES | survival |
| --- | --- |
| Cn1c(=O)c(=O)n(C)c2cc(NS(=O)(=O)c3ccc(Br)cc3)c(Cl)cc21 | inactive: 61% |
| COc1ccc(NC(=O)N2CCCn3nc(C)cc32)cc1OC | inactive: 93% |
| CCCCNC(=O)CSc1nc2cc3c(cc2c(=O)n1Cc1ccc(C(=O)NCCc2ccc(OC)c(OC)c2)cc1)OCO3 | inactive: 85% |
| N#Cc1c(Nc2ccccc2)sc(C(=O)c2cccs2)c1N | inactive: 75% |
| O=C(CN1C(=O)CCn2nc(-c3ccccc3)cc21)NCc1ccccc1 | inactive: 106% |
| c1ccc(OCCCn2nnc(-c3ccncc3)n2)cc1 | inactive: 87% |
| COc1cccc(CNC(=O)C(=O)NCC(c2ccco2)S(=O)(=O)c2ccccc2)c1 (centres undefined) | inactive: 81% |
| Cc1ccc(Cc2c(C)nc3nc(SCC(=O)NCCC(C)C)nn3c2C)cc1 | inactive: 70% |
| COc1ccc(NC(=O)Cn2c(=O)n(-c3ccc(C)cc3)c(=O)c3c2c2cc(C)ccc2n3C)cc1 | inactive: 125% |
| Cc1nn(C)c(C)c1S(=O)(=O)N(CC(=O)Nc1ccc(F)cc1F)c1ccc(C(C)C)cc1 | inactive: 94% |
| CC1CCN(c2nc3ccc(C(=O)NC(C)C)cc3s2)CC1 | inactive: 74% |
| Cc1ccc(CN2C(=O)SC(Nc3ccc(Cl)cc3)C2=O)cc1 (centres undefined) | active: 30% |
| COc1cccc(CNC(=O)c2sc3ncccc3c2-n2c(C)ccc2C)c1OC | inactive: 107% |
| O=C(Cn1nc(Cc2cccnc2)c2ccccc2c1=O)Nc1ccc(F)c(Cl)c1 | inactive: 74% |
| COc1ccc(-c2noc(CSc3nc4ccc(C)cc4[nH]3)n2)cc1 | active: 39% |
| CCC(C(=O)Nc1cc(C(F)(F)F)ccc1Cl)n1nc(C)c2sc3ccccc3c2c1=O (centres undefined) | inactive: 74% |
| COc1ccc(C(=O)NCC(c2ccc(Cl)cc2)N2CCCCC2)cc1 (centres undefined) | inactive: 63% |
| O=C(Cn1cnc2onc(-c3ccc(F)cc3)c2c1=O)N1CCN(c2ccc(F)cc2)CC1 | inactive: 72% |
| COc1ccccc1CNC(=O)c1cnc2sc(N3CCCCC3)nn2c1=O | inactive: 66% |
| COc1cccc(C2C(C(=O)Nc3ccccc3OC)=C(C)Nc3nc(-c4ccco4)nn32)c1 (centres undefined) | inactive: 69% |
| COc1ccc(-n2nc(C(=O)NCCc3ccc(OC)c(OC)c3)c3c4ccccc4n(C)c3c2=O)cc1 | inactive: 89% |
| CCC(Sc1nnc2c3ccccc3n(CC)c2n1)C(=O)Nc1ccc(NC(C)=O)cc1 (centres undefined) | inactive: 104% |
| Cc1ccccc1-c1nc(CS(=O)(=O)CC(=O)NCCCc2ccccc2)c(C)o1 | inactive: 118% |

| SMILES | survival |
| --- | --- |
| CC(=O)NC1C(=O)N(c2ccccc2)N=C1C (centres undefined) | inactive: 87% |
| COc1cc(NC(=O)CCc2nc3cccnc3n2Cc2cccs2)cc(OC)c1OC | inactive: 78% |
| CC1(C(=O)NC2CCCCC2)Cc2ccccc2C(=O)N1Cc1ccccc1Cl (centres undefined) | active: 43% |
| CCc1ccc(OCc2nc(-c3ccc(OC)c(OC)c3)no2)c(Br)c1 | active: 33% |
| O=C(OCc1ccccc1)Sc1nnc(-c2ccccc2Cl)o1 | inactive: 90% |
| O=C(CCc1nc2cccnc2n1-c1ccccc1)Nc1ccc(Cl)c(Cl)c1 | inactive: 51% |
| CN(C)c1ccc(C2C=C(c3ccccc3)Nc3nnnn32)cc1 (centres undefined) | inactive: 52% |
| CC(=O)c1ccc(N2C(=O)N(Cc3ccccc3C#N)c3ccccc3S2(=O)=O)cc1 | inactive: 91% |
| CCOc1ccc(C(=O)NCC(c2ccc3c(c2)OCO3)N2CCOCC2)cc1 (centres undefined) | inactive: 58% |
| CCc1ccccc1N(C)C(=O)c1cn(-c2cccc(OC)c2)c(=O)c2ccccc12 | inactive: 61% |
| O=S(=O)(c1ccc(Cl)c(Cl)c1)N1CCCCC1 | inactive: 75% |
| O=C(Nc1ccc(F)cc1F)C1CCN(S(=O)(=O)c2ccc3[nH]c(=O)ccc3c2)CC1 | inactive: 83% |
| CC1CC(NS(=O)(=O)c2cccs2)CC(C)(C)C1 (centres undefined) | inactive: 95% |
| CCc1ccc(NC(=O)Cn2nnc(C(=O)NCc3ccc(C)cc3)c2N)cc1 | inactive: 95% |
| CCOC(=O)c1nc(Nc2ccccc2OC)c2ccccc2n1 | active: 44% |
| COc1ccc(NCc2nnc(SCC(N)=O)n2-c2ccc(C)cc2)cc1 | inactive: 89% |
| Cc1cn2c(=O)cc(COc3ccc(NC(=O)c4ccccc4C)cc3)nc2s1 | inactive: 138% |
| CCCOc1ccc(-c2nc(N3CCCCC3)c3ccccc3n2)cc1 | active: -2% |
| Cc1nn(C)c2c1c(C(F)(F)F)cc(=O)n2CC(=O)N1CCCCC1C (centres undefined) | inactive: 91% |
| CCCCN(CC)C(=O)c1cc2c(=O)n3ccccc3nc2n1C | inactive: 50% |
| COc1cc(-c2noc(-c3ccc(NCc4ccco4)c([N+](=O)[O-])c3)n2)cc(OC)c1OC | active: 49% |
| Cc1oc2ccc(O)c(CN3CCCCC3)c2c1C(=O)Nc1cccc(C(F)(F)F)c1 | inactive: 52% |
| Cc1c(C(=O)Nc2ccc(F)c(Cl)c2)oc2ccc(S(=O)(=O)N(C)C3CCCCC3)cc12 | inactive: 80% |

| SMILES | survival |
| --- | --- |
| Cc1ccc(-n2ncc(C(=O)Nc3ccc4c(c3)OCO4)c2C2CCN(C(=O)OC(C)(C)C)CC2)c(C)c1 | inactive: 118% |
| CC(C)(C)c1ccc(S(=O)(=O)c2cn(CC(=O)Nc3ccccc3)c3ccccc3c2=O)cc1 | inactive: 78% |
| Cc1cccc(CCNC(=O)c2cnc3c(C)cccn3c2=O)c1 | inactive: 89% |
| Cc1ccc(CNC(=O)c2ccc3c(c2)N(Cc2ccccc2)C(=O)c2ccccc2S3(=O)=O)cc1 | inactive: 74% |
| COc1ccccc1CNC(=O)Cc1csc2nc(-c3ccccc3)cn12 | inactive: 75% |
| CC1(CCC(=O)O)NNC(=S)NN1 | inactive: 80% |
| O=C(CCC1N=C2c3ccccc3N=C(SCc3ccccc3F)N2C1=O)NCCc1ccccc1 (centres undefined) | inactive: 70% |
| Cc1cc(C)c(NC(=O)Cn2ccn(-c3cccc(Cl)c3)c(=O)c2=O)c(C)c1 | inactive: 57% |
| COC(=O)C1CCN(CC(=O)Nc2cc(C)c3c(=O)oc4ccccc4c3n2)CC1 | inactive: 83% |
| COc1ccc(N(C(=O)c2cccc(C)c2)S(=O)(=O)c2ccc(C)cc2)cc1 | inactive: 72% |
| O=C(Nc1nnc(S(=O)(=O)N2CCCc3ccccc32)s1)c1cccc(F)c1 | active: 7% |
| Cc1ccc2c(c1)N(C(=O)C1CCN(S(=O)(=O)c3c(C)noc3/C=C/c3ccccc3F)CC1)CCO2 | inactive: 71% |
| CCn1c(SCc2ccc(F)cc2Cl)nnc1-c1nonc1NC(C)=O | inactive: 106% |
| CCOC(=O)c1ccc(NC(=O)c2c(C)nn(-c3ccc(F)cc3)c2-n2cccc2)cc1 | inactive: 80% |
| COc1cc2[nH]c(=O)n(Cc3ccc(C(=O)N4CCN(c5cc(Cl)ccc5C)CC4)cc3)c(=O)c2cc1OC | inactive: 58% |
| O=S(=O)(NCCc1ccccc1)c1cccs1 | inactive: 95% |
| COc1ccc(N(Cc2cccs2)C(=O)c2ccc(C(C)(C)C)cc2)cc1 | inactive: 72% |
| O=C(NCC(c1ccc2c(c1)OCO2)N1CCOCC1)C(=O)Nc1ccc(F)cc1F (centres undefined) | inactive: 131% |
| O=C(Cn1cnc2c(oc3ccccc32)c1=O)Nc1ccc(OC(F)(F)F)cc1 | inactive: 83% |
| COc1nc2nonc2nc1OC | inactive: 86% |
